Experimental data: publication PMC3242762
Results are given in words; binding and its absence hold for the method and conditions named. Binding seen in cells or lysates may run through a third protein. Some results given as binding are weak or reduced against the parent protein; the word gives no strength. For part of these data: Tags and fused reporters may be left off the sequences shown.

The chains behind the UniProt entries cited, without tags or fusion partners.
UniProt P52479: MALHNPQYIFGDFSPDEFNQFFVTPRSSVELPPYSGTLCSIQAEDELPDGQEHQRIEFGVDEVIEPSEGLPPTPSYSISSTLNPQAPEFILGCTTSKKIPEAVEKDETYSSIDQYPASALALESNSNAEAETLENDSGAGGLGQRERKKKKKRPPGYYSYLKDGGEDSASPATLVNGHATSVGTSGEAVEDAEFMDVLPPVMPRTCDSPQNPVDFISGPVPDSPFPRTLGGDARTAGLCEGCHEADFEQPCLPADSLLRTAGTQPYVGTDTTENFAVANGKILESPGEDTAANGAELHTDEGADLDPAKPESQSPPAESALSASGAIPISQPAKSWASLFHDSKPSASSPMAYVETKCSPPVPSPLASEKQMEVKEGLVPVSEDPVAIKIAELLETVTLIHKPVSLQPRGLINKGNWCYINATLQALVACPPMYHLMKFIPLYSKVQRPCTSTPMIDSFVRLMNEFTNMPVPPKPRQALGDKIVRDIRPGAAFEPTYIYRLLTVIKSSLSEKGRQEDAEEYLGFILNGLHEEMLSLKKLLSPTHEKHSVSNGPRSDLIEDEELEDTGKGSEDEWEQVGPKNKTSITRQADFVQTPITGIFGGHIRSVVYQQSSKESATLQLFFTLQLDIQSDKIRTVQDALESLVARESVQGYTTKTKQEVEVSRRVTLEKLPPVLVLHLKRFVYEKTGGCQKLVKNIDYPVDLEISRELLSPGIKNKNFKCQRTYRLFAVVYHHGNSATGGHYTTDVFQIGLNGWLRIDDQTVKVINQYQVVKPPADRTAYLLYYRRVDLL

Key:
[1] = target: T1, V5-tagged human RasGAP lacking its first two methionine residues (V5-hRasGAP[3-1931].dn3, #686) (human) (UniProt P20936); assay: co-IP; anti-V5 immunoprecipitation from 1 mg lysate of transfected HEK293T cells; blots with HA- and V5-specific antibodies
T1 sequence: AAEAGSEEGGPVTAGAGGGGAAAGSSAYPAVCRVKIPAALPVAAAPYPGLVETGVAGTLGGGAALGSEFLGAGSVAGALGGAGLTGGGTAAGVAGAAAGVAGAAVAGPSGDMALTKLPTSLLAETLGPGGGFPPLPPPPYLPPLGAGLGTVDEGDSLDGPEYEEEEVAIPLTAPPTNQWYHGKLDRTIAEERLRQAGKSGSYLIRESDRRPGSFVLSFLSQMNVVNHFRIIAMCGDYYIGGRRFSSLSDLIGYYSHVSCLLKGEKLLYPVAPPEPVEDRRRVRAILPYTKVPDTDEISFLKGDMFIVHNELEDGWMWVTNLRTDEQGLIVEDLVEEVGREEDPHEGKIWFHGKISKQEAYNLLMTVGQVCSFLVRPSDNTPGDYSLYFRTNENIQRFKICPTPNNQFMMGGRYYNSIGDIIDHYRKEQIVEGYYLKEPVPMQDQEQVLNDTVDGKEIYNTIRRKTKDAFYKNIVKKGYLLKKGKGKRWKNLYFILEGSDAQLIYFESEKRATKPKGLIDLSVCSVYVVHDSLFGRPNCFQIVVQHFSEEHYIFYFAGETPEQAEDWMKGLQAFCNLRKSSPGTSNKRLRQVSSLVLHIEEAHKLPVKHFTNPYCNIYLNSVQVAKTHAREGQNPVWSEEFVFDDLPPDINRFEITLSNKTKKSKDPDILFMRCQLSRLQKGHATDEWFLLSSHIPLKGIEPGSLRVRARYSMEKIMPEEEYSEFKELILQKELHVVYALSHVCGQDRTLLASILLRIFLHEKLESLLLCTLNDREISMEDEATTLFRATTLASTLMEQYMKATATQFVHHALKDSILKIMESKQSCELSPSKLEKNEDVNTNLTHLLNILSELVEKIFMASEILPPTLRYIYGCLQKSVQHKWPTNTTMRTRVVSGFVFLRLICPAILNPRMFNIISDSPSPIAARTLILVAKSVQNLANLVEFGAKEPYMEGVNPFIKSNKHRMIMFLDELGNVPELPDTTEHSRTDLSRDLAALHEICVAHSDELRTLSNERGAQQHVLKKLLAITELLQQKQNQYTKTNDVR

[2] = target: T2, S-tagged fragment N2 of human RasGAP (Stag-hRasGAP[158-455].dn3, #754) (human) (UniProt P20936); assay: pull-down; S-tag pull-down from 1 mg lysate of transfected HEK293T cells (Stag lysis buffer): biotinylated S-protein 3 h at 4°C, then streptavidin beads; washed with PBS, 1% NP40; blot with anti-HA; in Figure 4 cells were treated with TAT-RasGAP_(317-326) for 20 h before lysis
T2 sequence: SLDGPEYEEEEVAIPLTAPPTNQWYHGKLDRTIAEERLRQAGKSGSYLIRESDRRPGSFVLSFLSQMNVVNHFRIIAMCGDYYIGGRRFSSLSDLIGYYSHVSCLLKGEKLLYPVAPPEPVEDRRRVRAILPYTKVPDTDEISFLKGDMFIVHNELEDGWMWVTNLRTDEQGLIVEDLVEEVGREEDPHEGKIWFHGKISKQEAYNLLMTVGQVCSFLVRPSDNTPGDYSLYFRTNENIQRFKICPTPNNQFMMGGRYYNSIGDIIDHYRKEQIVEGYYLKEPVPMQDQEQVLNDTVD

[3] = target: poly-histidine- and S-tagged mouse USP10 (6xHis-Stag-mUSP10.dn3, #646) (mouse) (UniProt P52479); assay: as above
[4] = target: endogenous RasGAP of CCL39 cells (Chinese hamster (endogenous in CCL39)); assay: co-IP; anti-RasGAP immunoprecipitation of endogenous proteins from non-confluent, exponentially growing CCL39 or U2OS cells lysed in 1% Triton X-100 lysis buffer; protein G sepharose; blots for G3BP1 and p190 RhoGAP
[5] = target: T3, endogenous RasGAP of U2OS cells (human (endogenous in U2OS)) (UniProt P20936); assay: as above
T3 sequence: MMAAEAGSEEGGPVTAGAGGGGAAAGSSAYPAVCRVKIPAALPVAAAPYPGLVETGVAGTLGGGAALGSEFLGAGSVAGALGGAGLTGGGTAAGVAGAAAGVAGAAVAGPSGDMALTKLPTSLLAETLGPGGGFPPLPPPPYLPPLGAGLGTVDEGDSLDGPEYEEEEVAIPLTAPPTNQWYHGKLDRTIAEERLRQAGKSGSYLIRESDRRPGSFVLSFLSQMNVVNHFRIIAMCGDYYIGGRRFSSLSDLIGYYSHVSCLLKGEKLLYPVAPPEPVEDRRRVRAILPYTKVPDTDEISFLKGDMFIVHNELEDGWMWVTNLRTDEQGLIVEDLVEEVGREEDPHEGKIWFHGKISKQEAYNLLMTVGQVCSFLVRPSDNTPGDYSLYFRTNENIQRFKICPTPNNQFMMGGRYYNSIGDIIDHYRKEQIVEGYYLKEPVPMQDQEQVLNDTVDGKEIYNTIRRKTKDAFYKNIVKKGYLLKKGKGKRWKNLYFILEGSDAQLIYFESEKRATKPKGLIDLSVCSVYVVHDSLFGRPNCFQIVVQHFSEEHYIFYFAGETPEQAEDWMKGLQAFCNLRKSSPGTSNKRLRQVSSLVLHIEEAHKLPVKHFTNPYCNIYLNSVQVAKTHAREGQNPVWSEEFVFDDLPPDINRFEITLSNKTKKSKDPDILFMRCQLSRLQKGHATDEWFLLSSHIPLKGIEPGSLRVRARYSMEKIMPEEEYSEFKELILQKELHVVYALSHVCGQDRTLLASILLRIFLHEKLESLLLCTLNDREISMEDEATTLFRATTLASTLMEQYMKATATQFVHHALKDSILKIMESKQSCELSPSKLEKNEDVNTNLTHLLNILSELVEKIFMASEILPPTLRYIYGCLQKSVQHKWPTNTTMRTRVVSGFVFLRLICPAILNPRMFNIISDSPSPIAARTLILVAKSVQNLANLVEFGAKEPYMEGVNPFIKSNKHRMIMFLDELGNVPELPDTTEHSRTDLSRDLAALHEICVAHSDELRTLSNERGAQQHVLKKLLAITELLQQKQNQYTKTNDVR

Question: How did the binding [1] turn out when “HA-tagged human G3BP1 (HA-hG3BP1.dn3, #541) (from UniProt Q13283-1 1-466)” was run?
Answer: no binding

Question: What about the binding [2] of the same molecule?
Answer: no binding

Question: And the binding [3]?
Answer: binds

Question: “endogenous G3BP1 of CCL39 cells (from UniProt A0A9J7JVX0 1-465)” was tested. Which binding [4] did it give?
Answer: no binding

B1: HA-tagged rat p190RhoGAP (HA-rRhoGAP.prc, #196) (protein, UniProt P81128 1-1499)
chain: MMMARKQDVRIPTYNISVVGLSGTEKEKGQCGIGKSCLCNRFVRPSADEFHLDHTSVLSTSDFGGRVVNNDHFLYWGEVSRSLEDCVECKMHIVEQTEFIDDQTFQPHRSTALQPYIKRAAATKLASAEKLMYFCTDQLGLEQDFEQKQMPDGKLLVDGFLLGIDVSRGMNRNFDDQLKFVSNLYNQLAKTKKPIVIVLTKCDEGVERYIRDAHTFALSKKNLQVVETSARSNVNVDLAFSTLVQLIDKSRGKTKIIPYFEALKQQSQQIATAKDKYEWLVSRIVKSHNENWLSVSRKMQASPEYQDYVYLEGTQKAKKLFLQHIHRLKHEHIERRRKLYLAALPLAFEALIPNLDEVDHLSCIKAKKLLETKPEFLKWFVVLEETPWDETSHIDNMENERIPFDLMDTVPAEQLYETHLEKLRNERKRAEMRRAFKENLETSPFITPGKPWEEARSFIMNEDFYQWLEESVYMDIYGKHQKQIIDRAKEEFQELLLEYSELFYELELDAKPSKEKMGVIQDVLGEEQRFKALQKLQAERDALILKHIHFVYHPTKETCPSCPACVDAKIEHLISSRFIRPSDRNQKNSLSDPNIDRINLVILGKDGLARELANEIRALCTNDDKYVIDGKMYELSLRPIEGNVRLPVNSFQTPTFQPHGCLCLYNSKESLSYVVESIEKSRESTLGRRDNHLVHLPLTLILVNKRGDTSGETLHSLIQQGQQIASKLQCVFLDPASAGIGYGRNINEKQISQVLKGLLDSKRNLNLVSSTASIKDLADVDLRIVMCLMCGDPFSADDILSPVLQSQTCKSSHCGSSNSVLLELPIGVHKKRIELSVLSYHSSFSIRKSRLVHGYIVFYSAKRKASLAMLRAFLCEVQDIIPIQLVALTDGAIDVLDNDLSREQLTEGEEIAQEIDGRFTSIPCSQPQHKLELFHPFFKDVVEKKNIIEATHMYDNVAEACSTTEEVFNSPRAGSPLCNSNLQDSEEDVEPPSYHLFREDATLPSLSKDHSKFSMELEGNDGLSFIMSNFESKLNNKVPPPVKPKPPVHFEITKDLSYLDQGHREGQRKSMSSSPWMPQDGFDPSDYAEPMDAVVKPRNEEENIYSVPHDSTQGKIITIRNINKAQSNGSGNGSDSEMDTSSLERGRKVSAVSKPVLYRTRCTRLGRFASYRTSFSVGSDDELGPIRKKEEDQASQGYKGDNAVIPYETDEDPRRRNILRSLRRNTKKPKPKPRPSITKATWESNYFGVPLTTVVTPEKPIPIFIERCIEYIEATGLSTEGIYRVSGNKSEMESLQRQFDQDHNLDLAEKDFTVNTVAGAMKSFFSELPDPLVPYSMQIDLVEAHKINDREQKLHALKEVLKKFPKENHEVFKYVISHLNRVSHNNKVNLMTSENLSICFWPTLMRPDFSSMDALTATRSYQTIIELFIQQCPFFFYNRPISEPPGAAPGSPSAMAPTVPFLTSTPATSQPSPPQSPPPTPQSPMQPLLSSQLQAEHTL
Question: How did the binding [1] turn out when B1 was run?
Answer: binds

B2: endogenous p190 RhoGAP of U2OS cells (protein, UniProt Q9NRY4 1-1499)
chain: MMMARKQDVRIPTYNISVVGLSGTEKEKGQCGIGKSCLCNRFVRPSADEFHLDHTSVLSTSDFGGRVVNNDHFLYWGEVSRSLEDCVECKMHIVEQTEFIDDQTFQPHRSTALQPYIKRAAATKLASAEKLMYFCTDQLGLEQDFEQKQMPDGKLLVDGFLLGIDVSRGMNRNFDDQLKFVSNLYNQLAKTKKPIVVVLTKCDEGVERYIRDAHTFALSKKNLQVVETSARSNVNVDLAFSTLVQLIDKSRGKTKIIPYFEALKQQSQQIATAKDKYEWLVSRIVKNHNENWLSVSRKMQASPEYQDYVYLEGTQKAKKLFLQHIHRLKHEHIERRRKLYLAALPLAFEALIPNLDEIDHLSCIKAKKLLETKPEFLKWFVVLEETPWDATSHIDNMENERIPFDLMDTVPAEQLYEAHLEKLRNERKRVEMRRAFKENLETSPFITPGKPWEEARSFIMNEDFYQWLEESVYMDIYGKHQKQIIDKAKEEFQELLLEYSELFYELELDAKPSKEKMGVIQDVLGEEQRFKALQKLQAERDALILKHIHFVYHPTKETCPSCPACVDAKIEHLISSRFIRPSDRNQKNSLSDPNIDRINLVILGKDGLARELANEIRALCTNDDKYVIDGKMYELSLRPIEGNVRLPVNSFQTPTFQPHGCLCLYNSKESLSYVVESIEKSRESTLGRRDNHLVHLPLTLILVNKRGDTSGETLHSLIQQGQQIASKLQCVFLDPASAGIGYGRNINEKQISQVLKGLLDSKRNLNLVSSTASIKDLADVDLRIVMCLMCGDPFSADDILFPVLQSQTCKSSHCGSNNSVLLELPIGLHKKRIELSVLSYHSSFSIRKSRLVHGYIVFYSAKRKASLAMLRAFLCEVQDIIPIQLVALTDGAVDVLDNDLSREQLTEGEEIAQEIDGRFTSIPCSQPQHKLEIFHPFFKDVVEKKNIIEATHMYDNAAEACSTTEEVFNSPRAGSPLCNSNLQDSEEDIEPSYSLFREDTSLPSLSKDHSKLSMELEGNDGLSFIMSNFESKLNNKVPPPVKPKPPVHFEITKGDLSYLDQGHRDGQRKSVSSSPWLPQDGFDPSDYAEPMDAVVKPRNEEENIYSVPHDSTQGKIITIRNINKAQSNGSGNGSDSEMDTSSLERGRKVSIVSKPVLYRTRCTRLGRFASYRTSFSVGSDDELGPIRKKEEDQASQGYKGDNAVIPYETDEDPRRRNILRSLRRNTKKPKPKPRPSITKATWESNYFGVPLTTVVTPEKPIPIFIERCIEYIEATGLSTEGIYRVSGNKSEMESLQRQFDQDHNLDLAEKDFTVNTVAGAMKSFFSELPDPLVPYNMQIDLVEAHKINDREQKLHALKEVLKKFPKENHEVFKYVISHLNKVSHNNKVNLMTSENLSICFWPTLMRPDFSTMDALTATRTYQTIIELFIQQCPFFFYNRPITEPPGARPSSPSAVASTVPFLTSTPVTSQPSPPQSPPPTPQSPMQPLLPSQLQAEHTL
Question: B2 was tested. Which binding [5] did it give?
Answer: binds
